Publication PMC9911399, “Two distinct binding modes provide the RNA-binding protein RbFox with extraordinary sequence specificity”
Substitutions are numbered along the chain they refer to; changes in the protein carry UniProt numbers. The list shows a part of the results.

T1: RBFOX1 RRM RbFoxmut (Fox-RRM*) (Homo sapiens, UniProt Q9NWB1 109-208, R118D;E147R;N151S;E152T)
T1 sequence: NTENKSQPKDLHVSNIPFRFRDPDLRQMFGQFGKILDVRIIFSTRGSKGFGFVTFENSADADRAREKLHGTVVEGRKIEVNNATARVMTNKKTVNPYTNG

B1: UGCACAG (DNA:RNA)
RNA: GGGAGACCGGAAUUCAGAUUGUCCUGCACAGUUAAAUCCCGUCGUAGCCACCA
DNA 1: CAATCTGAATTCCGGTCTCCC
DNA 2: TGGTGGCTACGACGGGATT
B2: CUAUAUA (DNA:RNA)
RNA: GGGAGACCGGAAUUCAGAUUGUCCCUAUAUAUUAAAUCCCGUCGUAGCCACCA
DNA 1: CAATCTGAATTCCGGTCTCCC
DNA 2: TGGTGGCTACGACGGGATT
B3: UGAGUAG (DNA:RNA)
RNA: B1 RNA with C27A, A28G, C29U
DNA 1: CAATCTGAATTCCGGTCTCCC
DNA 2: TGGTGGCTACGACGGGATT
B4: CACCUGU (DNA:RNA)
RNA: B2 RNA with U26A, A27C, U28C, A29U, U30G, A31U
DNA 1: CAATCTGAATTCCGGTCTCCC
DNA 2: TGGTGGCTACGACGGGATT
B5: UUCUUGC (DNA:RNA)
RNA: B2 RNA with C25U, A27C, A29U, U30G, A31C
DNA 1: CAATCTGAATTCCGGTCTCCC
DNA 2: TGGTGGCTACGACGGGATT
B6: CACUGGC (DNA:RNA)
RNA: B2 RNA with U26A, A27C, A29G, U30G, A31C
DNA 1: CAATCTGAATTCCGGTCTCCC
DNA 2: TGGTGGCTACGACGGGATT
B7: AUAGUGU (DNA:RNA)
RNA: B2 RNA with C25A, U28G, A29U, U30G, A31U
DNA 1: CAATCTGAATTCCGGTCTCCC
DNA 2: TGGTGGCTACGACGGGATT
B8: UUAAACG (DNA:RNA)
RNA: B2 RNA with C25U, U28A, U30C, A31G
DNA 1: CAATCTGAATTCCGGTCTCCC
DNA 2: TGGTGGCTACGACGGGATT
B9: UGUAAUU (DNA:RNA)
RNA: B1 RNA with C27U, C29A, A30U, G31U
DNA 1: CAATCTGAATTCCGGTCTCCC
DNA 2: TGGTGGCTACGACGGGATT
B10: AGAGAAU (DNA:RNA)
RNA: B2 RNA with C25A, U26G, U28G, U30A, A31U
DNA 1: CAATCTGAATTCCGGTCTCCC
DNA 2: TGGTGGCTACGACGGGATT
B11: ACAACGU (DNA:RNA)
RNA: B1 RNA with U25A, G26C, C27A, A30G, G31U
DNA 1: CAATCTGAATTCCGGTCTCCC
DNA 2: TGGTGGCTACGACGGGATT
B12: UACACCA (DNA:RNA)
RNA: B1 RNA with G26A, A30C, G31A
DNA 1: CAATCTGAATTCCGGTCTCCC
DNA 2: TGGTGGCTACGACGGGATT
B13: GAAGAAA (DNA:RNA)
RNA: B2 RNA with C25G, U26A, U28G, U30A
DNA 1: CAATCTGAATTCCGGTCTCCC
DNA 2: TGGTGGCTACGACGGGATT
B14: GAAUAUA (DNA:RNA)
RNA: B2 RNA with C25G, U26A
DNA 1: CAATCTGAATTCCGGTCTCCC
DNA 2: TGGTGGCTACGACGGGATT
B15: CCCUCAU (DNA:RNA)
RNA: B1 RNA with U25C, G26C, A28U, G31U
DNA 1: CAATCTGAATTCCGGTCTCCC
DNA 2: TGGTGGCTACGACGGGATT
B16: GGUCAUU (DNA:RNA)
RNA: B2 RNA with C25G, U26G, A27U, U28C, A31U
DNA 1: CAATCTGAATTCCGGTCTCCC
DNA 2: TGGTGGCTACGACGGGATT
B17: AAGCCUU (DNA:RNA)
RNA: B2 RNA with C25A, U26A, A27G, U28C, A29C, A31U
DNA 1: CAATCTGAATTCCGGTCTCCC
DNA 2: TGGTGGCTACGACGGGATT
B18: UGACAUU (DNA:RNA)
RNA: B2 RNA with C25U, U26G, U28C, A31U
DNA 1: CAATCTGAATTCCGGTCTCCC
DNA 2: TGGTGGCTACGACGGGATT
B19: CAUUCUC (DNA:RNA)
RNA: B2 RNA with U26A, A27U, A29C, A31C
DNA 1: CAATCTGAATTCCGGTCTCCC
DNA 2: TGGTGGCTACGACGGGATT
B20: UCUGUCU (DNA:RNA)
RNA: B1 RNA with G26C, C27U, A28G, C29U, A30C, G31U
DNA 1: CAATCTGAATTCCGGTCTCCC
DNA 2: TGGTGGCTACGACGGGATT
B21: AUACGGG (DNA:RNA)
RNA: B2 RNA with C25A, U28C, A29G, U30G, A31G
DNA 1: CAATCTGAATTCCGGTCTCCC
DNA 2: TGGTGGCTACGACGGGATT
B22: AAGAGCA (DNA:RNA)
RNA: B2 RNA with C25A, U26A, A27G, U28A, A29G, U30C
DNA 1: CAATCTGAATTCCGGTCTCCC
DNA 2: TGGTGGCTACGACGGGATT
B23: CCCGAGC (DNA:RNA)
RNA: B2 RNA with U26C, A27C, U28G, U30G, A31C
DNA 1: CAATCTGAATTCCGGTCTCCC
DNA 2: TGGTGGCTACGACGGGATT
B24: ACUCAAA (DNA:RNA)
RNA: B2 RNA with C25A, U26C, A27U, U28C, U30A
DNA 1: CAATCTGAATTCCGGTCTCCC
DNA 2: TGGTGGCTACGACGGGATT
B25: ACAUAGC (DNA:RNA)
RNA: B2 RNA with C25A, U26C, U30G, A31C
DNA 1: CAATCTGAATTCCGGTCTCCC
DNA 2: TGGTGGCTACGACGGGATT
B26: GGCGUUG (DNA:RNA)
RNA: B1 RNA with U25G, A28G, C29U, A30U
DNA 1: CAATCTGAATTCCGGTCTCCC
DNA 2: TGGTGGCTACGACGGGATT
B27: UCCCUAC (DNA:RNA)
RNA: B1 RNA with G26C, A28C, C29U, G31C
DNA 1: CAATCTGAATTCCGGTCTCCC
DNA 2: TGGTGGCTACGACGGGATT
B28: GCGGAGG (DNA:RNA)
RNA: B2 RNA with C25G, U26C, A27G, U28G, U30G, A31G
DNA 1: CAATCTGAATTCCGGTCTCCC
DNA 2: TGGTGGCTACGACGGGATT
B29: GACAAAC (DNA:RNA)
RNA: B1 RNA with U25G, G26A, C29A, G31C
DNA 1: CAATCTGAATTCCGGTCTCCC
DNA 2: TGGTGGCTACGACGGGATT
B30: UCCAUGG (DNA:RNA)
RNA: B1 RNA with G26C, C29U, A30G
DNA 1: CAATCTGAATTCCGGTCTCCC
DNA 2: TGGTGGCTACGACGGGATT
B31: UAUCAUU (DNA:RNA)
RNA: B2 RNA with C25U, U26A, A27U, U28C, A31U
DNA 1: CAATCTGAATTCCGGTCTCCC
DNA 2: TGGTGGCTACGACGGGATT

biological target: T1, RBFOX1 RRM RbFoxmut (Fox-RRM*); assay: EMSA; HiTS-Eq, 1 nM pool, 10 min; buffer printed only for the single-RNA assays: 10 mM Tris pH 7.5, 150 mM NaCl, 3.4 mM EDTA, 0.001% NP-40, 30 C; conditions: tags: His6 N-terminal (pET28a); label: 5' 32P
Procedure, shortened: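 Purified wild-type or mutant RbFox RRM at increasing concentrations was equilibrated with 1 nM of 5′-radiolabelled RNA carrying 7 randomized nucleotides for 10 min in 50 µL. Unbound RNA was separated by 8% native PAGE and sequenced. Relative association constants came from read-count changes of each RNA species compared with the control reaction, normalised to the cognate motif.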

Binder	binding signal
B1	0.0603 KA relative to UGCAUGU
B2	0.118 KA relative to UGCAUGU
B3	0.121 KA relative to UGCAUGU
B4	0.0998 KA relative to UGCAUGU
B5	0.118 KA relative to UGCAUGU
B6	0.106 KA relative to UGCAUGU
B7	0.172 KA relative to UGCAUGU
B8	0.0812 KA relative to UGCAUGU
B9	0.0891 KA relative to UGCAUGU
B10	0.0979 KA relative to UGCAUGU
B11	0.0917 KA relative to UGCAUGU
B12	0.101 KA relative to UGCAUGU
B13	0.0689 KA relative to UGCAUGU
B14	0.142 KA relative to UGCAUGU
B15	0.0691 KA relative to UGCAUGU
B16	0.0843 KA relative to UGCAUGU

Binder	binding signal
B17	0.0677 KA relative to UGCAUGU
B18	0.0809 KA relative to UGCAUGU
B19	0.0866 KA relative to UGCAUGU
B20	0.0967 KA relative to UGCAUGU
B21	0.064 KA relative to UGCAUGU
B22	0.12 KA relative to UGCAUGU
B23	0.103 KA relative to UGCAUGU
B24	0.0895 KA relative to UGCAUGU
B25	0.108 KA relative to UGCAUGU
B26	0.367 KA relative to UGCAUGU
B27	0.0633 KA relative to UGCAUGU
B28	0.0907 KA relative to UGCAUGU
B29	0.0549 KA relative to UGCAUGU
B30	0.0855 KA relative to UGCAUGU
B31	0.0737 KA relative to UGCAUGU
